Screen size: about 310,000 compounds; about 14,000 (4.5%) showed an effect of 50% or more. The effect is printed as a negative number. The list shows a part of the results.
Target: human ether-à-go-go-related gene (hERG) potassium channel (human, UniProt Q12809)
Assay: primary screen, population patch clamp on CHO cells stably expressing hERG
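Note: peak tail current of the secondary pulse compared with the same well before compound.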

Sequence of human ether-à-go-go-related gene (hERG) potassium channel (Q12809 whole entry, looked up): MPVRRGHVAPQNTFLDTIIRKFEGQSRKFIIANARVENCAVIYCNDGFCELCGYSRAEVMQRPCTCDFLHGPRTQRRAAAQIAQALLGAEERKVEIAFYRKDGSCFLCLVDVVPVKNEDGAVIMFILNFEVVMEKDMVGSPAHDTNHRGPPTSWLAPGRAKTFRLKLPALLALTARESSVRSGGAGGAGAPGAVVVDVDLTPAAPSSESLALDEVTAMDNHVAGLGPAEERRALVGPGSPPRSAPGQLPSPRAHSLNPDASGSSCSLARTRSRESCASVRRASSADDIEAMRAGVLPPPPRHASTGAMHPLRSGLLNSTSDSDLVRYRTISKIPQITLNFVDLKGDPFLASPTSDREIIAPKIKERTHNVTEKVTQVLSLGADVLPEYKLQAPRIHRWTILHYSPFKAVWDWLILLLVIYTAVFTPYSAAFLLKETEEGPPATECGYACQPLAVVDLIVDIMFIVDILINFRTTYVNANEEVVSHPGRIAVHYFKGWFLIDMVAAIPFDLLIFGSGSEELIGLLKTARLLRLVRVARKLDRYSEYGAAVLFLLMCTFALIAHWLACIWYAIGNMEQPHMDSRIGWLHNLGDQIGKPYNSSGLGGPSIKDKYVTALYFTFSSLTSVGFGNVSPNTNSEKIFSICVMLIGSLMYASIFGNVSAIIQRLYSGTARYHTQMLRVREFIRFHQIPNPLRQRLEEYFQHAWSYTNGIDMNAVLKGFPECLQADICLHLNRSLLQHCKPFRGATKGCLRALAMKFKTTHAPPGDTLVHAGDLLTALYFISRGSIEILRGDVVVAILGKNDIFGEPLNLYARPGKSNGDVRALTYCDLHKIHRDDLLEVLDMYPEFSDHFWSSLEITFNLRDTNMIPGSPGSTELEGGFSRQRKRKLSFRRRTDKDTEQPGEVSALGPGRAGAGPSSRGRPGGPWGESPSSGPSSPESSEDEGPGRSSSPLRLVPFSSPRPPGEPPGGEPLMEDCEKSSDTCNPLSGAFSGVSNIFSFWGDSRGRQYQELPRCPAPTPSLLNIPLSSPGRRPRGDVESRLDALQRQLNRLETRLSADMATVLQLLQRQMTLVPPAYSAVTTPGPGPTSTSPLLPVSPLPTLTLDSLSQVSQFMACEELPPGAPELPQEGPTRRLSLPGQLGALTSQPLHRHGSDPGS

Row | Structure (SMILES) | hERG current change (%, negative = inhibition) at 10uM [%]
1 | Cc1cc(C)c(S(=O)(=O)c2ccc(Cl)cc2C)c(Cl)n1 | 9.65
2 | Cc1noc(C)c1CSCC(=O)OCC(=O)Nc1sccc1C#N | -17.9
3 | CN(C)c1ccc(/C=C/c2nc3ccccc3c(=O)n2CCO)cc1 | 4.2
4 | CCOCCn1c(N2CCCC2)nc2c1c(=O)[nH]c(=O)n2C | 15.1
5 | CC(=O)Nc1ccc(NC(=O)C2CCCN2C(=O)NC2CCCCC2)cc1 (stereo not shown) | 12.5
6 | CCCn1c(=O)c(C(=O)NCCc2ccc(OC)c(OC)c2)c(O)c2ccccc21 | 10.5
7 | O=C(Nc1cccc(S(=O)(=O)N2CCCCC2)c1)Nc1ccc(Cl)cc1Cl | 7.77
8 | CCOC(=O)c1c(NC(C)=O)sc2c(O)c(Br)cc(Br)c12 | -2.63
9 | C=CCc1ccc(OCC(O)CN2CCC(Cc3ccccc3)CC2)c(OC)c1.Cl (stereo not shown) | -77.5
10 | COc1ccc2[nH]c(=O)c(CN(C3CCCCC3)C(c3nnnn3Cc3ccco3)C(C)C)cc2c1 (stereo not shown) | 11
11 | O=C(COc1ccccc1Cl)Nc1ccc(N2CCCC2)cc1 | 12.9
12 | CCn1nnnc1SCC(=O)Nc1ccc(OC)cc1 | 5.12
13 | COc1ccccc1N1CCN(S(=O)(=O)c2ccccc2F)CC1 | -23.3
14 | CCCS(=O)(=O)N1CCN(CC2CC3C=CC2C3)CC1.O=C(O)C(=O)O (stereo not shown) | -5.93
15 | COc1ccc(NC(=O)CC2C(=O)N(C)C(=S)N2Cc2cccs2)cc1 (stereo not shown) | -26.7
16 | OCCC1CN(CC(c2ccccc2)c2ccccc2)CCN1C1CCCC1 (stereo not shown) | -71.2
17 | CC1CC(C)CN(CCCNC(=O)c2cn(C)c3ccc(S(=O)(=O)N4CCCC4)cc3c2=O)C1 (stereo not shown) | -15.3
18 | Cc1cc(NC(=O)CCCN2C(=O)c3cccnc3C2=O)ccc1Br | -11.8
19 | Cc1cccc(-n2nnnc2-c2cnccc2C(F)(F)F)c1C | -1.03
20 | CCOC(=O)c1c(N)sc2c1CCC1C(=O)N(C3CCCCC3)C(=O)C21 (stereo not shown) | 3.56
21 | CC(=O)N/N=C(\C)CC(=O)NC(C)(C)C | 11.1
22 | O=C1N=C(N2CCCC2C(=O)O)S/C1=C\c1ccco1 (stereo not shown) | 35
23 | Cc1cccc(OCC(=O)NCc2ccncc2)c1C | -1.08
24 | CCn1cc(CN2CCC(n3nccc3NC(=O)CCc3ccccc3)CC2)cn1 | 2.28
25 | Cc1nc(N=C(N)N)nc2ccccc12 | 23.6

From publication PMC4336329 (PLoS ONE, 2015)
